Measured values taken from PMC4632296.
No constants are given. Whether binding was seen depends on the method and setting. Binding seen in cells or lysates may run through a third protein. Some binding calls cover weakened binding; strength is not graded here. For some assays here: Sequences can lack the tags named with a protein. Each block holds one molecule with its values, some of them ahead of it.

By UniProt entry, the sequences of proteins in these tests, tags left out. Where a name states a change or a piece, a line headed by the entry shows the natural chain unless it says otherwise. Residues count along the entry.
UniProt Q96KP1, residues 1-120: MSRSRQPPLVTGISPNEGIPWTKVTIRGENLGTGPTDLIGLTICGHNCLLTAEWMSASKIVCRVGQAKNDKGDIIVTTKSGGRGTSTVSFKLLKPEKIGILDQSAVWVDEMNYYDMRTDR
UniProt Q8IYI6, residues 122-333: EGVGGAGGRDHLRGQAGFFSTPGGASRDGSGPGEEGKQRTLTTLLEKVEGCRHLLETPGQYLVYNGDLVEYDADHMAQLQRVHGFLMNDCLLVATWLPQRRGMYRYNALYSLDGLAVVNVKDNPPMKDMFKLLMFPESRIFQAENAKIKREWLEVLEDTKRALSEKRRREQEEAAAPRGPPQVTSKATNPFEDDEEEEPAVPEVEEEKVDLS
UniProt Q96NA2: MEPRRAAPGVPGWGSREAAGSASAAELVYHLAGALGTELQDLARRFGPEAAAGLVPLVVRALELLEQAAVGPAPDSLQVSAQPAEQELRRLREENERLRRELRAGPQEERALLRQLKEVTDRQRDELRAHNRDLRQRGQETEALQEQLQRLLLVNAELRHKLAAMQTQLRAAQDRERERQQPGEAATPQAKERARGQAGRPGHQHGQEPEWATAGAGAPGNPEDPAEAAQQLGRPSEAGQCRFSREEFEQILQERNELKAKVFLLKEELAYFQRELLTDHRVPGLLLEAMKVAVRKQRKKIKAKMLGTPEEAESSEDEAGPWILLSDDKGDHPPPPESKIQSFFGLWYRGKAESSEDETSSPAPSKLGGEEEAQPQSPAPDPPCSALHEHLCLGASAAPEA
GST-RILP(1-198): residues 1-198 of Q96NA2
GST-RILP(199-401): residues 199-401 of Q96NA2

Legend:
[1] = target: T1, myc-RalGDS(RBD) (661-914 aa) (human) (UniProt Q12967); experiment: co-IP; MCF7 cells co-transfected with HA-RILP and myc-RalGDS constructs; precipitated with rabbit anti-myc antibody and protein A/G agarose, 4 C; blot with anti-HA and anti-myc
T1 sequence: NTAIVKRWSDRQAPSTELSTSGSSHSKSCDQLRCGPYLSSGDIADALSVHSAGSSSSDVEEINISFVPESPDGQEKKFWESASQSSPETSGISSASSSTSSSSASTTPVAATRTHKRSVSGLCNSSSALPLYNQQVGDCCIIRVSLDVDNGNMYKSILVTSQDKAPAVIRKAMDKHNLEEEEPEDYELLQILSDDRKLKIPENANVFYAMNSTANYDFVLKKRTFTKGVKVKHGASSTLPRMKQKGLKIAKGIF

[2] = target: T2, Myc-RalGDS in full length (1-914 aa) (human) (UniProt Q12967); experiment: as above
T2 sequence: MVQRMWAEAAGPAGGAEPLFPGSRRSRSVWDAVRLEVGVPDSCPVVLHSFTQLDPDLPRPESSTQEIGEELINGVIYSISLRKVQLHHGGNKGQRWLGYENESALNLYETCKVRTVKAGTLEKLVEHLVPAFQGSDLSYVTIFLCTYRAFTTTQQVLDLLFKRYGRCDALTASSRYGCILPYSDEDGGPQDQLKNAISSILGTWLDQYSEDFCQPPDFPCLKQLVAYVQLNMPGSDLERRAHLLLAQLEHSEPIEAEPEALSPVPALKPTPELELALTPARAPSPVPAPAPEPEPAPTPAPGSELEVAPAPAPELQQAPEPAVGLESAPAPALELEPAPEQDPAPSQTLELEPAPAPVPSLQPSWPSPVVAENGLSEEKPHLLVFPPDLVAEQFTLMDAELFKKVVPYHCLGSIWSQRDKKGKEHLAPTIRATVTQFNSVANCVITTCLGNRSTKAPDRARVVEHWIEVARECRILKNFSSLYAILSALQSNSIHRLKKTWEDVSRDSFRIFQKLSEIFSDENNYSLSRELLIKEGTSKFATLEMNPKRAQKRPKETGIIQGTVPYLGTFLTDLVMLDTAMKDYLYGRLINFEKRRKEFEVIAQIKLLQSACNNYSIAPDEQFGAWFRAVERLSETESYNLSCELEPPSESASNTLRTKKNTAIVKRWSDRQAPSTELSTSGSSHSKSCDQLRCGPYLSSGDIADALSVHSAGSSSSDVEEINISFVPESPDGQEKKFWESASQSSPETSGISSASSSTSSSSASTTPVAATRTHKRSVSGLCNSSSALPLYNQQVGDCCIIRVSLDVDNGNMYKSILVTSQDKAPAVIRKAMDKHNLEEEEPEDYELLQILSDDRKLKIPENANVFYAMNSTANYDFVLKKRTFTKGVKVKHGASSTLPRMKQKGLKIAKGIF

[3] = target: T3, myc-RalGDS(GEF) (1-660aa) (human) (UniProt Q12967); experiment: as above
T3 sequence: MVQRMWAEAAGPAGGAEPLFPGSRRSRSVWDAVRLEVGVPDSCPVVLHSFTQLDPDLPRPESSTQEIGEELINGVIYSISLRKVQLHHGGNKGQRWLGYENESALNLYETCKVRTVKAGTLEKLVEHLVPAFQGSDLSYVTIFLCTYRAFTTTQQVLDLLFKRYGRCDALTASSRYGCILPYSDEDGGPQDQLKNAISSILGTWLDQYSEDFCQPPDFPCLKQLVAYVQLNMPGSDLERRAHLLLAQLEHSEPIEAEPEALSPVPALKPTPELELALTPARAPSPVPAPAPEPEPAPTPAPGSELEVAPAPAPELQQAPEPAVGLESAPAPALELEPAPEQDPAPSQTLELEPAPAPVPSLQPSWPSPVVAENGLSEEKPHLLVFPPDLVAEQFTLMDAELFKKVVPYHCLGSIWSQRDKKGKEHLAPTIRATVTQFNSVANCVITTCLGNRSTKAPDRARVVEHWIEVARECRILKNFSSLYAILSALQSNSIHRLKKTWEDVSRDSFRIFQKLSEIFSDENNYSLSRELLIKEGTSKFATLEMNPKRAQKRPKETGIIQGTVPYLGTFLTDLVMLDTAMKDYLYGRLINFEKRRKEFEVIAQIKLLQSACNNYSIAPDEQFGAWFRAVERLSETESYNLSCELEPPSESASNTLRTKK

GST-Sec5(RBD) (human) = GST-Sec5(RBD) (human) (UniProt Q96KP1); experiment: pull-down; GST-fusion proteins (20 ug) immobilised on GST-Sepharose-4B resin; lysates of MCF7 or MDA-MB-231 cells, untransfected or transfected (myc-RalGDS constructs; GFP, GFP-RILP, GFP-RILP with myc-RalGDS; HA-RalA); 25 mM Tris-HCl, 100 mM NaCl, 1.0% Triton X-100, pH 7.4; western blot; only the target purified
GST-Exo84(RBD) (human) = GST-Exo84(RBD) (human) (UniProt Q8IYI6); experiment: as above
GST-RILP = GST-RILP (UniProt Q96NA2); experiment: as above
GST-RILP(199-401) = GST-RILP(199-401) (UniProt Q96NA2); experiment: as above
GST-RILP(1-198) = GST-RILP(1-198) (UniProt Q96NA2); experiment: as above

Molecule: HA-RILP (from UniProt Q96NA2 1-401)
binding [1]: no binding
binding [2]: binds
binding [3]: binds

B1: RalA (from cell lysates, detected with anti-RalA antibody) (protein, UniProt P11233 1-206)
chain: MAANKPKGQNSLALHKVIMVGSGGVGKSALTLQFMYDEFVEDYEPTKADSYRKKVVLDGEEVQIDILDTAGQEDYAAIRDNYFRSGEGFLCVFSITEMESFAATADFREQILRVKEDENVPFLLVGNKSDLEDKRQVSVEEAKNRAEQWNVNYVETSAKTRANVDKVFFDLMREIRARKMEDSKEKNGKKKRKSLAKRIRERCCIL
binding (GST-Sec5(RBD) (human)): binds
binding (GST-Exo84(RBD) (human)): binds
binding (GST-RILP): no binding

B3: Myc-RalGDS in full length (1-914 aa) (protein, UniProt Q12967 1-914)
chain: MVQRMWAEAAGPAGGAEPLFPGSRRSRSVWDAVRLEVGVPDSCPVVLHSFTQLDPDLPRPESSTQEIGEELINGVIYSISLRKVQLHHGGNKGQRWLGYENESALNLYETCKVRTVKAGTLEKLVEHLVPAFQGSDLSYVTIFLCTYRAFTTTQQVLDLLFKRYGRCDALTASSRYGCILPYSDEDGGPQDQLKNAISSILGTWLDQYSEDFCQPPDFPCLKQLVAYVQLNMPGSDLERRAHLLLAQLEHSEPIEAEPEALSPVPALKPTPELELALTPARAPSPVPAPAPEPEPAPTPAPGSELEVAPAPAPELQQAPEPAVGLESAPAPALELEPAPEQDPAPSQTLELEPAPAPVPSLQPSWPSPVVAENGLSEEKPHLLVFPPDLVAEQFTLMDAELFKKVVPYHCLGSIWSQRDKKGKEHLAPTIRATVTQFNSVANCVITTCLGNRSTKAPDRARVVEHWIEVARECRILKNFSSLYAILSALQSNSIHRLKKTWEDVSRDSFRIFQKLSEIFSDENNYSLSRELLIKEGTSKFATLEMNPKRAQKRPKETGIIQGTVPYLGTFLTDLVMLDTAMKDYLYGRLINFEKRRKEFEVIAQIKLLQSACNNYSIAPDEQFGAWFRAVERLSETESYNLSCELEPPSESASNTLRTKKNTAIVKRWSDRQAPSTELSTSGSSHSKSCDQLRCGPYLSSGDIADALSVHSAGSSSSDVEEINISFVPESPDGQEKKFWESASQSSPETSGISSASSSTSSSSASTTPVAATRTHKRSVSGLCNSSSALPLYNQQVGDCCIIRVSLDVDNGNMYKSILVTSQDKAPAVIRKAMDKHNLEEEEPEDYELLQILSDDRKLKIPENANVFYAMNSTANYDFVLKKRTFTKGVKVKHGASSTLPRMKQKGLKIAKGIF
binding (GST-RILP(199-401)): no binding
binding (GST-RILP(1-198)): binds
binding (GST-RILP): binds

Other lines, results leading:

binding (GST-RILP): binds
B2: endogenous RalGDS (protein, UniProt Q12967 1-914)
chain: MVQRMWAEAAGPAGGAEPLFPGSRRSRSVWDAVRLEVGVPDSCPVVLHSFTQLDPDLPRPESSTQEIGEELINGVIYSISLRKVQLHHGGNKGQRWLGYENESALNLYETCKVRTVKAGTLEKLVEHLVPAFQGSDLSYVTIFLCTYRAFTTTQQVLDLLFKRYGRCDALTASSRYGCILPYSDEDGGPQDQLKNAISSILGTWLDQYSEDFCQPPDFPCLKQLVAYVQLNMPGSDLERRAHLLLAQLEHSEPIEAEPEALSPVPALKPTPELELALTPARAPSPVPAPAPEPEPAPTPAPGSELEVAPAPAPELQQAPEPAVGLESAPAPALELEPAPEQDPAPSQTLELEPAPAPVPSLQPSWPSPVVAENGLSEEKPHLLVFPPDLVAEQFTLMDAELFKKVVPYHCLGSIWSQRDKKGKEHLAPTIRATVTQFNSVANCVITTCLGNRSTKAPDRARVVEHWIEVARECRILKNFSSLYAILSALQSNSIHRLKKTWEDVSRDSFRIFQKLSEIFSDENNYSLSRELLIKEGTSKFATLEMNPKRAQKRPKETGIIQGTVPYLGTFLTDLVMLDTAMKDYLYGRLINFEKRRKEFEVIAQIKLLQSACNNYSIAPDEQFGAWFRAVERLSETESYNLSCELEPPSESASNTLRTKKNTAIVKRWSDRQAPSTELSTSGSSHSKSCDQLRCGPYLSSGDIADALSVHSAGSSSSDVEEINISFVPESPDGQEKKFWESASQSSPETSGISSASSSTSSSSASTTPVAATRTHKRSVSGLCNSSSALPLYNQQVGDCCIIRVSLDVDNGNMYKSILVTSQDKAPAVIRKAMDKHNLEEEEPEDYELLQILSDDRKLKIPENANVFYAMNSTANYDFVLKKRTFTKGVKVKHGASSTLPRMKQKGLKIAKGIF

binding (GST-RILP): binds
B4: myc-RalGDS(GEF) (1-660aa) (domain or fragment, UniProt Q12967 1-660)
chain: MVQRMWAEAAGPAGGAEPLFPGSRRSRSVWDAVRLEVGVPDSCPVVLHSFTQLDPDLPRPESSTQEIGEELINGVIYSISLRKVQLHHGGNKGQRWLGYENESALNLYETCKVRTVKAGTLEKLVEHLVPAFQGSDLSYVTIFLCTYRAFTTTQQVLDLLFKRYGRCDALTASSRYGCILPYSDEDGGPQDQLKNAISSILGTWLDQYSEDFCQPPDFPCLKQLVAYVQLNMPGSDLERRAHLLLAQLEHSEPIEAEPEALSPVPALKPTPELELALTPARAPSPVPAPAPEPEPAPTPAPGSELEVAPAPAPELQQAPEPAVGLESAPAPALELEPAPEQDPAPSQTLELEPAPAPVPSLQPSWPSPVVAENGLSEEKPHLLVFPPDLVAEQFTLMDAELFKKVVPYHCLGSIWSQRDKKGKEHLAPTIRATVTQFNSVANCVITTCLGNRSTKAPDRARVVEHWIEVARECRILKNFSSLYAILSALQSNSIHRLKKTWEDVSRDSFRIFQKLSEIFSDENNYSLSRELLIKEGTSKFATLEMNPKRAQKRPKETGIIQGTVPYLGTFLTDLVMLDTAMKDYLYGRLINFEKRRKEFEVIAQIKLLQSACNNYSIAPDEQFGAWFRAVERLSETESYNLSCELEPPSESASNTLRTKK
